# Sequences with one replicate were seen in a single cluster, so their values are uncertain.
# System: ATP
# Assay: switch fluorescence ratio, 500 uM ATP over buffer (Cy3 cluster intensity, sum of 5 cycles each) (fold (ratio)); higher = stronger signal-on switching upon ATP binding; sequences stand for … in TCGTCGGCAGCGTCAGATGTGTATAAGAGACAGTTTTTTTTTTTTTTTTTTTTTTTTT…TC
# Conditions: aptamer strand: ATP DNA aptamer (quencher-CACCTGGGGGAGTATTGCGGAGGAAGG + anchor), 100 nM annealed; ATP concentration: 500 uM; one replicate
# Outline: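 For every switch-domain sequence, the fluorescence ratio is the mean of per-cluster values, each being summed target-cycle Cy3 intensity over summed buffer-cycle Cy3 intensity. Clusters outside 100-1000 RFU were excluded. On a modified Illumina MiSeq flow-cell, the Cy3-labelled switching-strand clusters were annealed to 100 nM quencher-labelled ATP aptamer, imaged in selection buffer and then after 15 min with 500 uM ATP at 22 °C. Five such cycles were run, with NaOH stripping and re-annealing between them.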
# 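Further: ATP exposure 15 min at 22 °C before imaging.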
row,Sequence,switch fluorescence ratio
1,TTAAATGGAC,1.07
2,TTAACAATGA,0.979
3,TTAACGCACC,1.79
4,TTAACGTCTC,0.996
5,TTAACTCACC,1.17
6,TTAACTGAGA,1.03
7,TTAAGAAAA,0.994
8,TTAAGAGTGG,1.01
9,TTAAGATCTG,0.962
10,TTAAGATGG,1.02
11,TTAAGATTAG,0.996
12,TTAAGCCACC,1.21
13,TTAAGGAAGA,1.08
14,TTAAGGCATC,1.05
15,TTAAGGCGAG,0.967
16,TTAAGGGGCC,1.03
17,TTAAGGTACC,1.07
18,TTAAGTCCAT,1.05
19,TTAAGTCCTC,1.01
20,TTAAGTCGTG,0.997
21,TTAAGTTTCT,1.01
22,TTAATAACCG,1.04
23,TTAATAGTCT,1.01
24,TTAATATCGA,1.02
25,TTAATATTG,0.986
26,TTAATCATA,1.04

row,Sequence,switch fluorescence ratio
1,TTAATCCATT,1.02
2,TTACACAAAC,1.07
3,TTACAGATAT,1.01
4,TTACAGGACC,1.01
5,TTACATATA,1.05
6,TTACCAATTT,0.964
7,TTACCACAC,1.49
8,TTACCAGGTA,1.07
9,TTACCATAAG,1.05
10,TTACCCTACT,1.25
11,TTACCGAAAC,1.21
12,TTACCGACCC,1.52
13,TTACCGGCTT,1.03
14,TTACCTCCAC,1.48
15,TTACCTTATG,1.05
16,TTACGACATT,1.03
17,TTACGATCAA,1.11
18,TTACGCCATA,1.08
19,TTACGCGGAC,1.45
20,TTACGGATGC,1.05
21,TTACGGGATG,1.03
22,TTACGGTCTG,1.02
23,TTACGTCCTT,1.03
24,TTACGTTAGC,1.11
25,TTACTATTAT,1.05
26,TTACTCTCCC,1.3

row,Sequence,switch fluorescence ratio
1,TTACTGAG,1.04
2,TTACTGAGTC,1.01
3,TTACTGCCGA,1.04
4,TTACTGGTGG,0.978
5,TTACTGTGGT,0.956
6,TTACTTTCTA,1.02
7,TTACTTTTCC,1.15
8,TTAGAAGAAA,1.06
9,TTAGAAGAGA,1.05
10,TTAGAATCGG,1
11,TTAGACTTCT,1
12,TTAGAGAACA,0.999
13,TTAGAGAT,1.01
14,TTAGAGCAGG,1.04
15,TTAGAGTACT,0.958
16,TTAGCAAGCT,1.11
17,TTAGCAATTG,1.13
18,TTAGCATCG,0.956
19,TTAGCATGTA,0.99
20,TTAGCCGAAT,1.01
21,TTAGCCGGGA,0.986
22,TTAGCGATGT,1.07
23,TTAGCGTTCC,2.09
24,TTAGCTACGT,1.04
25,TTAGCTAGAC,2.92
26,TTAGCTATCC,3.51

row,Sequence,switch fluorescence ratio
1,TTAGCTCAAC,0.995
2,TTAGCTTTGG,0.967
3,TTAGGAACC,0.993
4,TTAGGATGAG,0.987
5,TTAGGATGC,0.985
6,TTAGGATTTA,0.979
7,TTAGGCAATT,0.961
8,TTAGGCTCAG,0.982
9,TTAGGCTGAC,1.06
10,TTAGGCTGTT,1.06
11,TTAGGGAGAT,0.982
12,TTAGGGCATA,1.06
13,TTAGGGGGC,0.998
14,TTAGGGTTCA,1.02
15,TTAGGTCATT,0.992
16,TTAGGTTAGC,0.979
17,TTAGGTTGAA,1.02
18,TTAGTACTCT,1.33
19,TTAGTCAGTG,1.03
20,TTAGTGGAG,0.98
21,TTAGTGGGCA,1.02
22,TTAGTGTATT,0.973
23,TTAGTTCGAG,0.961

# Reference: the supplement of paper PMC10126150
